Several values for one entry are separate records, joined by “and”; a condition that tells them apart may be missing. Identical values can stand only once. The campaign covered roughly 16,000 compounds. About 40 (0.2%) were called active. Not shown: some 1% with an inconclusive outcome. The call rests on the fitted dose curve; in most records, active means well fitted activation curve with a large enough effect; inconclusive means small, poorly fitted or top-dose-only effect, or another doubt; inactive means no such curve, though single readings can be large or run the other way. The list shows a part of the results.

These results are taken from PubChem BioAssay AID1645887 (National Center for Advancing Translational Sciences (NCATS), 2021).
On the % scale 0 is the no-effect control and ±100 the full control effect.

Chain of UniProt Q8WZA2 (Q8WZA2 whole entry, looked up): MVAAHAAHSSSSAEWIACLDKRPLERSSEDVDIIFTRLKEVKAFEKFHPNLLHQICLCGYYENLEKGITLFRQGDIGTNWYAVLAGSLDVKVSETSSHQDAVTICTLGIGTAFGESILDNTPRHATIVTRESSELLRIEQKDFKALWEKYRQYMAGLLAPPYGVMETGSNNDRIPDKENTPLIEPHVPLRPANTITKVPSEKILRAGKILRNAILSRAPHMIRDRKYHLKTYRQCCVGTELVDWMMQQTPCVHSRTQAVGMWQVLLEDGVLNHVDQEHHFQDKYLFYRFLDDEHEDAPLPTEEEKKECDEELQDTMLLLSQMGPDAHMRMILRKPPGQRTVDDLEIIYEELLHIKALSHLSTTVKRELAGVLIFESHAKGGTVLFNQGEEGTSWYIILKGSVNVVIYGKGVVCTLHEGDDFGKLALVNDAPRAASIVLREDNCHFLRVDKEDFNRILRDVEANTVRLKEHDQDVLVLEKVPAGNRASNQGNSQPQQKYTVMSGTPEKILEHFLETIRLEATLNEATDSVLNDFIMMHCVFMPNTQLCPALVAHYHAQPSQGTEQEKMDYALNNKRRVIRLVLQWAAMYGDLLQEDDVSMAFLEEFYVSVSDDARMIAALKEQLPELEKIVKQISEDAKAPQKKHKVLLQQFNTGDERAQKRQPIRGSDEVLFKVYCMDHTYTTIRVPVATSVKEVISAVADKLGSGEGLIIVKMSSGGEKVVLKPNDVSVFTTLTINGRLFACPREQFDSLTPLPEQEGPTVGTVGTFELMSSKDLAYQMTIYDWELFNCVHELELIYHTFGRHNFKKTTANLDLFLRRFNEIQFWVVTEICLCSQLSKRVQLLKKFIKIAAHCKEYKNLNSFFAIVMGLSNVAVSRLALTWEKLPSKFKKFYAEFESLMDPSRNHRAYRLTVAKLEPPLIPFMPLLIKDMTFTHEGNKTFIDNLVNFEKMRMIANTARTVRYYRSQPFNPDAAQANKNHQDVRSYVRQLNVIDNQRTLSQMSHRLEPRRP

For this experiment, the target named is Rap guanine nucleotide exchange factor 4 (Homo sapiens) (UniProt Q8WZA2). Nature of the experiment: Validation qHTS for agonist of cAMP-regulated guanine nucleotide exchange factor 4 (EPAC2).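 Further: exchange makes BODIPY-GDP fluorescence drop when released from Rap1B; series mostly up to about 150 µM.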 Particulars: EPAC2 Rap1B BODIPY-GDP exchange, fluorescence; activation: stronger effect = higher value. Summed up:
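Fluorescent exchange assay: 100 nM EPAC2 with 250 nM RAP1B-BODIPY-GDP and 50 uM GDP; compound added, 5 min at room temperature, then read (ex 480/em 540 nm) every 5 min for 30 min. Normalized to 6.5 mM cAMP agonist control.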
Take `CCOC(=S)SSC(=S)OCC`: the activation was inactive: -19.7%.

Take `Cc1ccc(CNc2nc(CN3CCN(C=O)CC3)nc3ccccc23)o1`: the activation was inactive: 5.61%.

Take `COCCn1c(=O)c(-c2ccc(Cl)cc2)nc2cnc(Nc3ccccc3)nc21`: the activation was inactive: -8.15%.

As to `CO[C@]1(NC(=O)C(C(=O)O)c2ccc(O)cc2)C(=O)N2C(C(=O)O)=C(CSc3nnnn3C)COC21` (stereo partly drawn), the activation is inactive: -19.7%.

As to `CC(=O)NCCNc1ccnc(-c2ccccc2C(F)(F)F)n1`, the activation was inactive: -2.45%.

On to `Cc1cc2c(s1)Nc1ccccc1N=C2N1CCN(C)CC1`, for which the activation was inactive: -14.4% and inactive: -1.98%.

Turning to `CC1(C)O[C@H]2C[C@@H]3[C@H]4CCC5=CC(=O)C=C[C@]5(C)[C@@]4(F)[C@@H](O)C[C@]3(C)[C@]2(C(=O)CO)O1`, the activation is inactive: 2.81%.

Take `O=C(O)CC1CCCc2ccccc2C1O` (stereo not drawn): the activation is inactive: -3.93%.

Regarding `CO/N=C(/C(=O)N[C@@H]1C(=O)N2C(C(=O)O)=C(Cn3nnc(C)n3)CS[C@H]12)c1csc(N)n1`, the activation was inactive: 13.5%.

On to `COc1ccc2cc(CNC3CCS(=O)(=O)C3)c(-c3ccc(OC)c(OC)c3)nc2c1` (stereo not drawn), for which the activation is inactive: 2.21%.

`N[C@H](CCC(=O)N[C@H](CSN=O)C(=O)NCC(=O)O)C(=O)O`: the activation was inactive: -26.4%.

As to `COc1ccc(Oc2ncc3nc(-c4ccc(Cl)cc4)c(=O)n(C)c3n2)cc1`, the activation was inactive: 2.17%.

In the case of `O=C(O)c1ccccc1O`, the activation was inactive: 1.02% and inactive: -18.8% and inactive: -3.37%.

For `CC(=O)Oc1cc(-c2coc3cc(OC(C)=O)c(OC(C)=O)c(OC(C)=O)c3c2=O)cc(OC(C)=O)c1OC(C)=O`, the activation is inactive: -4.18%.

Consider `COc1ccc(-c2nc3cnc(N4CCOCC4)nc3n(C3CC3)c2=O)cc1`, for which the activation is inactive: -9.96%.

Turning to `O=c1oc2cc(O)ccc2s1`, the activation was inactive: -6.04%.

As to `NNc1nnc(NN)c2ccccc12`, the activation was inactive: 20.5%.

For `Cc1oc(-c2ccccc2NC(=O)c2ccccc2)nc1CNC(=O)c1c(-c2ccccc2)noc1C`, the activation was inactive: 7.1%.

For the compound `COc1cc2ncnc(Nc3cccc(Cl)c3)c2cc1OC`, the activation is inactive: -3.04% and inactive: -16.6% and inactive: -17.3%.

As to `OCc1nc2ccc(Cl)cc2[nH]1`, the activation is inactive: -14.6%.

With `O=C(c1cccnc1)C1CCCN(Cc2ccc3c(c2)CN(C(=O)c2cccs2)CCO3)C1` (stereo not drawn), the activation is inactive: -0.301%.

For the compound `COc1ncc2nc(-c3cc(F)cc(F)c3)c(=O)n(Cc3cccs3)c2n1`, the activation was inactive: 1.12%.

In the case of `CC/C(=C/c1ccccc1)c1cc(Oc2ccccc2)cc2oc3ccccc3c12`, the activation is inactive: -3.35%.

For `C=C[C@@]1(C)CC(=O)[C@@]2(O)[C@@]3(C)[C@@H](O)CCC(C)(C)[C@@H]3[C@H](OC(=O)CCN(C)C)[C@H](OC(C)=O)[C@@]2(C)O1`, the activation is inactive: -21.8%.

Regarding `O=C(NCc1ccccn1)c1cnn(-c2nccc(-c3cccs3)n2)c1C1CC1`, the activation was inactive: -3.13%.

On to `CN1CCN(c2ncncc2-c2ccc(N(C)C)cc2)CC1`, for which the activation was inactive: -9.35%.

As for `CCCCC/C=C\C/C=C\C/C=C\C/C=C\CCCC(=O)O[C@@H](CO)COCCCCCCCCCCCCCCCC`, the activation was inactive: -2.94%.

Take `Cc1cc(-c2ccnc(-n3ncc(C(=O)NCCc4cccnc4)c3C)n2)c(C)s1`: the activation is inactive: -11.7%.

With `O=c1c(-c2cccs2)nc2cnc(N3CCNCC3)nc2n1CCc1ccccc1`, the activation was inactive: 6.28%.

As for `COc1ccc2[nH]cc(CCNc3ncnc4ccc(-c5ccoc5)cc34)c2c1`, the activation was inactive: -12.4%.

With `CC1(C)OC2CC3C4CC(F)C5=CC(=O)CC[C@@]5(C)C4C(O)C[C@@]3(C)[C@]2(C(=O)CO)O1` (stereo partly drawn), the activation was inactive: 19.5%.

Take `O=C(c1cc(C(F)(F)F)cc(C(F)(F)F)c1)N1CCC2(CC1)CCN(c1ccccc1)CC2`: the activation is inactive: -27.3%.

In the case of `CN(C)C(=O)c1ccc(-c2cc(NCc3cccs3)ncn2)cc1`, the activation was inactive: -16.8%.

Consider `NCCCCNS(=O)(=O)c1ccc2c(Cl)cccc2c1`, for which the activation was inactive: -11.2%.

For the compound `CSc1nnc(CCNC(=O)c2ccccc2C(F)(F)F)n1-c1ccc(F)cc1`, the activation is inactive: -13.1%.

Regarding `CCc1c(C)c2ccccc2[nH]c1=O`, the activation was inactive: -14%.

In the case of `Nc1ncnc2c1ncn2C1OC(COP(=O)(O)O)C(O)C1O` (stereo not drawn), the activation is inactive: -9.34%.

For the compound `O=C(c1cnccn1)N1CCC2(CC1)CN(Cc1cc(C(F)(F)F)cc(C(F)(F)F)c1)C2`, the activation was inactive: -14.5%.

Consider `CN(C)c1ccc(-c2nccc(NCCN3CCOCC3)n2)cc1`, for which the activation is inactive: -10.2%.

Consider `COCCn1c(=O)c(C)nc2cncnc21`, for which the activation is inactive: -1.56%.

As to `CNc1nc(-c2ccccc2C)nc2ccccc12`, the activation was inactive: -20.4%.

Regarding `O=C(O)[C@H](CC(=O)N1C[C@H]2CCCC[C@H]2C1)Cc1ccccc1`, the activation was inactive: -24.7%.

Turning to `N[C@H](C(=O)O)c1ccc(O)cc1`, the activation is inactive: -7.02%.

With `CN1CCN(c2ncc3nc(-c4cccc(C#N)c4)c(=O)n(C[C@H]4CCCO4)c3n2)CC1`, the activation is inactive: -11.6%.

With `CC(C)(CO)NC(=O)c1cnn(-c2ncc3c(n2)-c2ccccc2CC3)c1C1CC1`, the activation was inactive: -6.03%.

In the case of `CCOc1ccc2nc(S(N)(=O)=O)sc2c1`, the activation is inactive: -21.5%.

Take `Cc1c(O)cc2c(c1C)O[C@](C)(CCC[C@H](C)CCC[C@H](C)CCCC(C)C)CC2`: the activation was inactive: -58.8%.

With `COc1ccc(-c2cccc3c2OC(CNC(=O)c2ccc4c(c2)OCO4)C3)nn1` (stereo not drawn), the activation was inactive: -15.3%.

For the compound `CC(C)c1nc(N(C)S(C)(=O)=O)nc(-c2ccc(F)cc2)c1/C=C/C(O)CC(O)CC(=O)O` (stereo not drawn), the activation was inactive: -23%.

`COCCn1c(=O)c(-c2ccccc2)nc2cnc(N(C)C)nc21`: the activation was inactive: -10.1%.

With `CCOC(=O)c1cnc2c(cnn2CC)c1NN=C(C)C`, the activation is inactive: -5.98% and inactive: 2.68% and inactive: -65.4%.

For the compound `COc1ccc(-n2c(=O)c(-c3cc(F)cc(F)c3)nc3cnc(N4CCNCC4)nc32)cc1`, the activation is inactive: -11.3%.

With `C[C@@H]1C[C@H]2[C@@H]3CCC4=CC(=O)C=C[C@]4(C)[C@@]3(Cl)[C@@H](O)C[C@]2(C)[C@@]1(OC(=O)c1ccco1)C(=O)CCl`, the activation was inactive: -7.91%.

In the case of `CN1CCCN(C(c2ccccc2)c2ccc(Cl)cc2)CC1` (stereo not drawn), the activation is inactive: -12.1%.

For `CCOC(=O)[C@H](CCc1ccccc1)N[C@@H](C)C(=O)N1C(=O)N(C)C[C@H]1C(=O)O`, the activation was inactive: 7.08%.

Regarding `O=C(O)c1cc2cc(Cc3cccnc3)ccc2o1`, the activation is inactive: 4.38% and inactive: -20%.

As for `CCCCNC(=O)[C@@H]1CC=C[C@@H]2CCN(CCCC)C(=O)[C@@H]21`, the activation was inactive: 0.476%.

For the compound `COCCNC(=O)COc1ccc(OCCNC[C@@H](O)COc2ccccc2)cc1`, the activation is inactive: -8.03%.

For the compound `CCC1COCCS(=O)(=O)N1Cc1ccccc1F` (stereo not drawn), the activation was inactive: -2.86%.

For `CC(=O)NCCNc1nc(-c2ccccc2C)nc2ccccc12`, the activation was inactive: -11.4%.

In the case of `COCC(=O)Nc1cc(C(=O)N2CC3(C)CC2CC(C)(C)C3)c2c(c1)nc(-c1ccncc1)n2C` (stereo not drawn), the activation was inactive: -3.54%.

With `CC(C)(C)c1ccc(C(=O)C[n+]2cccc(Br)c2)cc1`, the activation is inactive: -17.8%.

On to `Cc1ccc2c(c1)CN(CCNC(=O)c1cccc(Cn3cccn3)c1)CC(C)O2` (stereo not drawn), for which the activation was inactive: 0.542%.

Take `O=C(c1cnccn1)N1CCC[C@@]2(CCN(c3cccc(-c4ccccc4)c3)C2)C1`: the activation was inactive: 7.39%.

With `COCCn1c(=O)c(-c2ccccc2)nc2cnc(OC)nc21`, the activation is inactive: -6.49%.

In the case of `Cn1nc(C(=O)NCCN2Cc3ccccc3OC(c3ccsc3)C2)c2ccccc2c1=O` (stereo not drawn), the activation was inactive: -22.2%.

Turning to `OC1(c2cccnc2)CCN(Cc2ccc3c(c2)CN(Cc2cccc(C(F)(F)F)c2)CCO3)CC1`, the activation was inactive: 0.187%.

For the compound `O=C1[C@H](Cc2ccccc2)NCCCC[C@H](c2ccc(Cl)cc2)N1Cc1ccc(Cl)cc1`, the activation is inactive: -8.99%.

For `O=C(Nc1ccc(Cl)cc1Cl)[C@@H]1CC=C[C@@H]2CCN(C3CC3)C(=O)[C@@H]21`, the activation was inactive: -11.6%.

On to `O=C(c1cccc(F)c1F)N1CCOc2ccc(CN3CCC(Oc4cccnc4)CC3)cc2C1`, for which the activation was inactive: 1.29%.

On to `O=C(c1cccc(F)c1)N1CCC2(CC1)CN(c1ccccc1)C2`, for which the activation is inactive: 4.44%.

Consider `COCC(=O)N1CCC2(CC1)CN(c1ccccc1)C2`, for which the activation is inactive: 0.597%.

In the case of `C=C1c2cccc(O)c2C(O)=C2C(=O)[C@]3(O)C(O)=C(C(N)=O)C(=O)[C@@H](N(C)C)[C@@H]3[C@@H](O)[C@H]12`, the activation is inactive: -19%.

On to `N#C/C(=C\c1ccc(O)c(O)c1)C(=O)NCCCc1ccccc1`, for which the activation is inactive: -4.79% and inactive: -22.4%.

Take `Cc1ncoc1C(=O)N1CCOc2ccc(CN3CCC(Oc4cccnc4)CC3)cc2C1`: the activation was inactive: 5.67%.

Turning to `CCCCCCCCCCCCCCCC(=O)O`, the activation is inactive: -24.9%.

Take `C/C(=C\C(=O)OCCCCCCCCC(=O)O)C[C@@H]1OC[C@H](C[C@@H]2O[C@H]2[C@@H](C)[C@H](C)O)[C@@H](O)[C@H]1O`: the activation is inactive: -40.2%.

Consider `COc1cc(=O)n2c(c1C(=O)NCc1ccco1)CCN(Cc1ccc3nsnc3c1)CC2`, for which the activation was inactive: -6.46%.

Take `O=S(=O)(c1ccccc1)N1CCC[C@@]2(CCN(c3ccncc3)C2)C1`: the activation was inactive: -15.5%.

Consider `CC1O[C@@H](O[C@H]2C(Oc3cc(O)c4c(=O)cc(-c5ccc(O)cc5)oc4c3)OC(CO)C(O)C2O)C(O)C(O)C1O` (stereo partly drawn), for which the activation was inactive: -12.8%.

`COc1ncc2nc(C)c(=O)n(C)c2n1`: the activation is inactive: -14.9%.

`CNc1ncnc2ccc(-c3ccccc3C)cc12`: the activation is inactive: -13.7%.

Turning to `C=C[C@](C)(O)CCC1C(=C)CCC2[C@@](C)(CO)CCC[C@@]12C` (stereo partly drawn), the activation is inactive: -4.04%.
